Read counts are not given, so values of variants with three or more changes are uncertain.
B1: OR4K15 (parent)
chain: GUUAACGGUCAUAGGCCAUGGAAACUAGGAGCACCAUUUCGCUGCCAGUGAAGAAAUGAACAAAGAAAAUCUGGGCCAGGCAGGCAUCAAAAGAAAUAGUCUUGCGCUCAACCAGAAAGUCUGUAAUCAUUUUAAGGGUA

Variants of: B1
Assay: self-cleavage, relative activity (ratio to wild type); higher = more cleavage; in vitro, sequencing; the parent is a self-cleaving ribozyme

| Variant | self-cleavage |
| --- | --- |
| A13G U38C A91G | 1.15 |
| A13G A82G U108C A118G U127C U130C | 0 |
| A13G G75A A82G A89U | 0.24 |
| C17U A23G A92G U108C C113U | 0 |
| G14C A91G A140G | 0.74 |
| G14U A36G A66G | 1.07 |
| U12C A22G A117G | 1.15 |
| G15A A18U A30G A51U A63G A94G A96G | 1.66 |
| U12C A90G A110C A116C | 0.04 |
| U12C A55G A135U | 0.7 |
| A13G U19C A66G A94G | 0.57 |
| U12C A52G A62G A90G U122C | 0.81 |
| G15C A33G A110G A116U | 0.03 |
| A13G A36U U108C | 0.1 |
| A13G A62G A114G A134G | 0.18 |
| U12C A69U U132A | 1.04 |
| C17U U49C A114G G136A | 0.27 |
| G14U U19C U37C A52G | 1.21 |
| C16U U26C G74A U102C A117G U120C | 0.22 |
| C17U A30G A111U A118G | 0.05 |
| A13G U49C U97A | 1.64 |

| Variant | self-cleavage |
| --- | --- |
| C17A A23G A135U | 1.16 |
| C17A U49A A64G | 1.29 |
| A13U A66G A125G U130C U132G | 0.58 |
| U12C U37C A52G A54G U127C U131C | 0.39 |
| U12C A23G A82G | 0.49 |
| A13G U103C G123A U132C | 0.44 |
| C17U U37C A68G | 1.23 |
| C17U A55G A110G A126C | 0.11 |
| A13U U37C U38C A116G U139C | 0.79 |
| G15A A23G U43C A69G U133C | 1.03 |
| A13U A47G A67G A89G G99A | 0.25 |
| G15A U43C A52G A68U U120C | 1.64 |
| C17U A24U A56G A86G U130C | 1.27 |
| U12C A36G A51G A94G A129G | 0.79 |
| G15A A30U G74U A92G | 0.13 |
| U12C U132C U133A | 0.64 |
| U12G U39C U72G A78G | 0.42 |
| A13G A23G A55G A56G A78U A95G U122C | 0.31 |
| U12C G99U U132A | 0.34 |
| A13U U19C A27U U87C U100C | 1.64 |
| U12C A24U A56G A63G A135G | 0.95 |

| Variant | self-cleavage |
| --- | --- |
| U12C A24G U49C C112U U132C | 0.04 |
| U12C A51G A135G | 1.25 |
| A13G A51U A86G | 0.45 |
| G14A A23G U103C A129C | 0.34 |
| A13C U26C A54U A60U U102G U130C | 0.19 |
| U12C A54G A94G | 1.49 |
| U12C G20A A62G | 0.91 |
| U12C A90G U103A G104A | 0.02 |
| U12C A90G A94G C105A A111G | 0.03 |
| G14A A62C U108C | 0.02 |
| U12C A23G A64U A111G | 0.1 |
| C17A A95G U122A | 1.62 |
| A13C A47U A51U A98G | 0.56 |
| A13U A56G U97C A98G U108C A110U A126G | 0.01 |
| G15C U38C A60G A98G U120C | 0.45 |
| G14A A54G U127C | 0.63 |
| U12C U39C A68G U100C U108A | 0.04 |
| U12G U124C U130G | 0.87 |
| U12C A47G A96G | 1.56 |
| A13G A69G A129U | 1.36 |
| U12C U37C A111G | 0 |

| Variant | self-cleavage |
| --- | --- |
| C16U U38C A68U U72C A95C U132C | 0.15 |
| G15A A18U U72A A92G C105U | 0.01 |
| G14A A86G U97C A116G | 0.31 |
| A13G U38C U87A G119A | 1.45 |
| G14A A55U U102C A126G | 1.02 |
| G14A A33U A90G | 1.3 |
| C16U A90G A92G U97C | 0.65 |
| C17A U103C U108C A126C | 0.01 |
| U12C A27G U43C A63G U72G U127C | 0.04 |
| U12C A47G A64G A110U | 0.37 |
| A13G A18G A23C A91C A118U | 0.07 |
| A13G A52G A129G | 1.54 |
| A13G A30C A82U | 0.41 |
| A13G A89G U122A | 1.33 |
| A13G A18G U19C A64U A68G A91G A94C U131C | 0.56 |
| C17U A36G A96C A118G U124G | 0.48 |
| A13G A18G U19C A36U A55G | 1.13 |
| C17A A86G G106A U127A | 0.02 |
| C17U U37C A135G U139C | 1.6 |
| A13G A62G C77U | 0.9 |
| A13U G15U A23G A82G U102A A110G | 0.01 |

Reference: the RNAGym collection of RNA variant scans (doi:10.7554/elife.90254)
